Structures can show the parent of a compound that is named as a salt. The full ranking holds about 2,800 compounds; the median of “cell viability relative to vehicle” is about 0.98, and the lowest 2% start at about 0.45. The list shows a part of the results.
test system: NCI-H2228 alectinib-DTP; assay: cell viability relative to vehicle (fraction of vehicle); NCI-H2228 is an ALK-positive lung cancer line and DTP means drug-tolerant persister; higher = less growth inhibition; details: 100 nM; treatment time 6 days
How it was run: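 Parental NCI-H2228 cells and drug-tolerant persister cells (made with 1000 nM of a targeted drug for 13 days) were seeded in 384-well plates. The next day, the 3114-agent TargetMol anti-cancer compound library was added at 100 nM, with DMSO as vehicle. After 6 days, ATP was read with the CellTiter-Glo 3D Cell Viability Assay. Each value is cell viability relative to vehicle-treated cells.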

First: Cc1c(CC(=O)O)c2cccnc2n1Cc1ccc(S(C)(=O)=O)cc1C(F)(F)F [Fevipiprant]
Second: Cc1c(Cn2c(C)nc3c(C(=O)O)cc(N4CCOCC4)cc32)cccc1C(F)(F)F
The cell viability of the first is higher: 1.04 for the first, 0.959 for the second.

Going from `Nc1cc(F)ccc1NC(=O)c1ccc(CNC(=O)/C=C/c2cccnc2)cc1` [Chidamide] to `O=C(NCc1ccc(Oc2ccccc2)cc1)c1nc(-c2cc(Br)c(O)c(Br)c2)no1`, the cell viability rises from 0.775 to 0.819.

Going from `CNC1(C)C2CCC(C2)C1(C)C` (stereo not drawn) [Mecamylamine hydrochloride] to `CC(C)=C1CC[C@@H](C)CC1=O` [Pulegone], the cell viability rises from 0.868 to 1.12.

First: NC(=O)c1cccnc1 [Nicotinamide]
Second: O=C(Nc1cc(Cl)cc2c1[nH]c1cnccc12)c1cccnc1
The cell viability of the first is lower: 0.93 for the first, 1.1 for the second.

Going from `OCc1ccc(-c2nn(Cc3ccccc3)c3ccccc23)o1` [Lificiguat] to `COc1ccccc1OCCNCC(O)COc1cccc2[nH]c3ccccc3c12` (stereo not drawn) [Carvedilol], the cell viability falls from 1.1 to 1.03.

Going from `CC(C)C[C@H](N)C(=O)O` [L-Leucine] to `CC(C)[C@H]1CC[C@H](C(=O)N[C@H](Cc2ccccc2)C(=O)O)CC1` [Nateglinide], the cell viability falls from 1.02 to 0.92.

First: Cn1c(=O)c2c(ncn2CC(O)CO)n(C)c1=O (stereo not drawn) [Diprophylline]
Second: Cn1c(=O)c(F)c(Nc2ccc(I)cc2F)c2c(=O)n(C[C@@H](O)CO)cnc21
The cell viability of the first is higher: 1.05 for the first, 0.77 for the second.

Going from `CCCc1nc(C(C)(C)O)c(C(=O)OCc2oc(=O)oc2C)n1Cc1ccc(-c2ccccc2-c2nnn[nH]2)cc1` [Olmesartan Medoxomil] to `CCOc1nc2cccc(C(=O)OC(C)OC(=O)OC3CCCCC3)c2n1Cc1ccc(-c2ccccc2-c2nn[nH]n2)cc1` (stereo not drawn) [Candesartan Cilexetil], the cell viability falls from 1.06 to 0.839.

First: NCc1c[nH]c(=S)n1[C@H]1CCc2c(F)cc(F)cc2C1 [Nepicastat HCl]
Second: CC1CCc2cc(F)cc3c(=O)c(C(=O)O)cn1c23 (stereo not drawn) [Flumequine]
The cell viability of the first is higher: 1.04 for the first, 1 for the second.

Compared with `O=C(O)CCc1nc2ccccc2[nH]1` [Procodazole], `O=C(O)/C=C/c1ccccc1` [Cinnamic acid] is higher in cell viability: 1.07 for the first, 1.22 for the second.

Compared with `O=c1[nH]c(=O)n([C@H]2C[C@H](O)[C@@H](CO)O2)cc1/C=C/Br` [Brivudine], `COc1c(O)cc2c(c1O)[C@@H]1O[C@H](CO)[C@@H](O)[C@H](O)[C@H]1OC2=O` [Bengenin] is higher in cell viability: 1.04 for the first, 1.23 for the second.

Going from `COc1ccc(-c2cc3c(C)nc(N)nc3n([C@H]3CC[C@H](OCCO)CC3)c2=O)cn1` to `CNC(=O)CN1CCC(Oc2cc3c(Nc4cccc(Cl)c4F)ncnc3cc2OC)CC1` [Sapitinib], the cell viability rises from 0.398 to 0.759.

First: COC(=O)c1c2c(c3ccccc3c1O)OC(C)(C)C=C2 [Mollugin]
Second: COc1c(O)cc(O)c2c(=O)cc(-c3ccccc3)oc12 [Wogonin]
The cell viability of the first is higher: 1.05 for the first, 0.937 for the second.

Compared with `NCCNc1ccc(NCCN)c2c1C(=O)c1ccncc1C2=O` [Pixantrone dimaleate], `CCCS(=O)(=O)Nc1ccc(F)c(C(=O)c2c[nH]c3ncc(Cl)cc23)c1F` is higher in cell viability: 0.661 for the first, 0.899 for the second.

`COc1ccc(/C=C/C(=O)C2(C(=O)/C=C/c3ccc(OC)c(OC)c3)CCCCC2)cc1OC` and `COc1cc2c(cc1OC)-c1cc3nc4ccccc4nc3n1C(C)(C)C2` are the same in cell viability: 1.02 for the first, 1.02 for the second.

Compared with `CCOC(=O)c1ccc(C#Cc2ccc3c(c2)C(C)(C)CCS3)nc1` [Tazarotene], `COc1cc(-c2nc3ccccc3s2)ccc1O` is higher in cell viability: 0.714 for the first, 1.01 for the second.

First: CC(C)(C)C#Cc1cc(N(C(=O)[C@H]2CC[C@H](C)CC2)[C@H]2CC[C@H](O)CC2)c(C(=O)O)s1 [Lomibuvir]
Second: COc1cc(N2CCC(N3CCN(C)CC3)CC2)ccc1Nc1ncc(Cl)c(Nc2ccccc2S(=O)(=O)C(C)C)n1
The cell viability of the first is higher: 1.06 for the first, 0.942 for the second.

First: Oc1ccc(-c2cc(=S)ss2)cc1 [Desmethylanethol trithione]
Second: COc1ccc2cc(Br)ccc2c1 [2-Bromo-6-methoxynaphthalene]
The cell viability of the first is lower: 0.964 for the first, 1.2 for the second.

First: CCCOc1ccc(CCc2nc3cc(-c4c(C)noc4C)ccc3n2CCN2CCOCC2)cc1 [PF-CBP1 hydrochloride]
Second: COc1ccc(CCCOC(Cn2ccnc2)c2ccc(OC)cc2)cc1 (stereo not drawn)
The cell viability of the first is lower: 1.07 for the first, 1.26 for the second.

Compared with `COc1cc2ncnc(Nc3ccc(Oc4ccccc4)cc3)c2cc1OC` [Src Inhibitor 1], `Nc1cccc(-c2cc3c(Oc4cccc(O)c4)ncnc3[nH]2)c1` is higher in cell viability: 0.933 for the first, 0.969 for the second.

Compared with `Nc1ccc(S(N)(=O)=O)cc1` [Sulfanilamide], `COc1ccc(C(C)=O)c(O)c1` [Paeonol] is higher in cell viability: 1.05 for the first, 1.21 for the second.

First: O=C(COCC(=O)N1CCN(C(c2ccccc2)c2ccccc2)CC1)Nc1ccc(Cl)cc1C(=O)O [TM5275 sodium]
Second: O=C(CCN1CCN(C(=O)OCc2cc(Cl)cc(Cl)c2)CC1)c1ccc2[nH]c(=O)oc2c1
The cell viability of the first is lower: 1.08 for the first, 1.12 for the second.

Compared with `Cc1ccc(NC(=S)NNc2c([N+](=O)[O-])cc(C(F)(F)F)cc2[N+](=O)[O-])cc1Cl`, `CN1CCN(c2ccc(C(=O)Nc3n[nH]c4ccc(Cc5cc(F)cc(F)c5)cc34)c(NC3CCOCC3)c2)CC1` [Entrectinib] is lower in cell viability: 0.982 for the first, 0.927 for the second.

First: COc1ccc(-c2oc3c(CC=C(C)C)c(O)cc(O)c3c(=O)c2O)cc1 [Icaritin]
Second: COc1ccc(-n2nc(C(N)=O)c3c2C(=O)N(c2ccc(N4CCCCC4=O)cc2)CC3)cc1 [Apixaban]
The cell viability of the first is higher: 1.05 for the first, 0.853 for the second.

First: COc1ccccc1OCCNCC(O)COc1cccc2[nH]c3ccccc3c12 (stereo not drawn) [Carvedilol phosphate]
Second: c1cnc(NCc2ccc(CNc3ncccn3)cc2)nc1
The cell viability of the first is higher: 0.976 for the first, 0.914 for the second.

First: C[C@H]1CC[C@@]2(OC1)O[C@H]1C[C@H]3[C@@H]4CC[C@@H]5C[C@@H](O[C@@H]6O[C@H](CO)[C@H](O)[C@H](O)[C@H]6O[C@@H]6O[C@H](CO)[C@@H](O)[C@H](O)[C@H]6O)CC[C@]5(C)[C@H]4CC[C@]3(C)[C@H]1[C@@H]2C [Timosaponin AIII]
Second: CCN1CCCC1CNC(=O)c1cc(S(=O)(=O)CC)c(N)cc1OC (stereo not drawn) [Amisulpride]
The cell viability of the first is higher: 1.1 for the first, 0.952 for the second.

`S=P(N1CC1)(N1CC1)N1CC1` [Triethylenethiophosphoramide] gave a cell viability of 1.
